# Assay results reported in the supplement of paper PMC8728848.
# The list shows a part of the results.
# B1: MSMEG3662-2a (Mycobacterium smegmatis), A0QYH7_MYCS2 (protein)
# chain: MGDTLTAGQKLERGGSLQSGNGAYTLTLQDDGNLVLYARDKAVWSTGTNGQDVVRAEVQTDGNFVLYTAEKPVWHTDTKGKKEVKLVLQDDRNLVLYAKDGPAWSSKTDTTEPPPPAPEPEKEAEVAPAAAEEAAPAPVAEPAPAEPAPAAPPPAPPAPRTYTVVSGDTLWAIAERFYGDGSKYQQIADASGIANPDLIHPGQVLTIP
# What was measured:
# Test in all cases: glycan array binding signal (z-score within array); higher = stronger binding
# Conditions in all cases: glycan notation: IUPAC condensed, linker removed
# [1] = biological target: Gal(b1-4)GlcNAc(b1-3)Gal(b1-4)GlcNAc(b1-2)Man(a1-3)[Gal(b1-4)GlcNAc(b1-3)Gal(b1-4)GlcNAc(b1-2)Man(a1-6)]Man(b1-4)GlcNAc(b1-4)[Fuc(a1-6)]GlcNAc
# Method in brief: (§1)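 Arrays were curated from the Consortium for Functional Glycomics database, 3228 in total, and kept only where the protein sequence was available. Binding is expressed as a within-array Z-score. This score was averaged across arrays of the same protein sequence at different concentrations or buffers and across linkers, and negative values can be read as non-binding.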
# [2] = biological target: Gal(b1-4)GlcNAc(b1-3)Gal(b1-4)GlcNAc(b1-2)[Gal(b1-4)GlcNAc(b1-3)Gal(b1-4)GlcNAc(b1-6)]Man(a1-6)[Gal(b1-4)GlcNAc(b1-3)Gal(b1-4)GlcNAc(b1-2)Man(a1-3)]Man(b1-4)GlcNAc(b1-4)GlcNAc
# Method in brief: as §1
# [3] = biological target: Gal(b1-4)GlcNAc(b1-3)Gal(b1-4)GlcNAc(b1-2)[Gal(b1-4)GlcNAc(b1-3)Gal(b1-4)GlcNAc(b1-6)]Man(a1-6)[Gal(b1-4)GlcNAc(b1-3)Gal(b1-4)GlcNAc(b1-2)Man(a1-3)]Man(b1-4)GlcNAc(b1-4)[Fuc(a1-6)]GlcNAc
# Method in brief: as §1
# [4] = biological target: Gal(b1-4)GlcNAc(b1-3)Gal(b1-4)GlcNAc(b1-3)Gal(b1-4)GlcNAc
# Method in brief: as §1
# [5] = biological target: Gal(b1-4)GlcNAc(b1-3)Gal(b1-4)GlcNAc(b1-3)Gal(b1-4)GlcNAc(b1-2)Man(a1-3)[Gal(b1-4)GlcNAc(b1-3)Gal(b1-4)GlcNAc(b1-3)Gal(b1-4)GlcNAc(b1-2)Man(a1-6)]Man(b1-4)GlcNAc(b1-4)GlcNAc
# Method in brief: as §1
# [6] = biological target: Gal(b1-4)GlcNAc(b1-3)Gal(b1-4)GlcNAc(b1-3)Gal(b1-4)GlcNAc(b1-2)Man(a1-3)[Gal(b1-4)GlcNAc(b1-3)Gal(b1-4)GlcNAc(b1-3)Gal(b1-4)GlcNAc(b1-2)Man(a1-6)]Man(b1-4)GlcNAc(b1-4)[Fuc(a1-6)]GlcNAc
# Method in brief: as §1
# [7] = biological target: Gal(b1-4)GlcNAc(b1-3)Gal(b1-4)GlcNAc(b1-3)Gal(b1-4)GlcNAc(b1-2)[Gal(b1-4)GlcNAc(b1-3)Gal(b1-4)GlcNAc(b1-3)Gal(b1-4)GlcNAc(b1-6)]Man(a1-6)[Gal(b1-4)GlcNAc(b1-3)Gal(b1-4)GlcNAc(b1-3)Gal(b1-4)GlcNAc(b1-2)Man(a1-3)]Man(b1-4)GlcNAc(b1-4)[Fuc(a1-6)]GlcNAc
# Method in brief: as §1
# [8] = biological target: Gal(b1-4)GlcNAc(b1-3)Gal(b1-4)GlcNAc(b1-3)Gal(b1-4)GlcNAc(b1-3)Gal(b1-4)GlcNAc(b1-2)Man(a1-3)[Gal(b1-4)GlcNAc(b1-3)Gal(b1-4)GlcNAc(b1-3)Gal(b1-4)GlcNAc(b1-3)Gal(b1-4)GlcNAc(b1-2)Man(a1-6)]Man(b1-4)GlcNAc(b1-4)GlcNAc
# Method in brief: as §1
# [9] = biological target: Gal(b1-4)GlcNAc(b1-3)Gal(b1-4)GlcNAc(b1-3)Gal(b1-4)GlcNAc(b1-3)Gal(b1-4)GlcNAc(b1-2)Man(a1-3)[Gal(b1-4)GlcNAc(b1-3)Gal(b1-4)GlcNAc(b1-3)Gal(b1-4)GlcNAc(b1-3)Gal(b1-4)GlcNAc(b1-2)Man(a1-6)]Man(b1-4)GlcNAc(b1-4)[Fuc(a1-6)]GlcNAc
# Method in brief: as §1
# [10] = biological target: Gal(b1-4)GlcNAc(b1-3)Gal(b1-4)GlcNAc(b1-3)Gal(b1-4)GlcNAc(b1-3)Gal(b1-4)GlcNAc(b1-2)[Gal(b1-4)GlcNAc(b1-3)Gal(b1-4)GlcNAc(b1-3)Gal(b1-4)GlcNAc(b1-3)Gal(b1-4)GlcNAc(b1-6)]Man(a1-6)[Gal(b1-4)GlcNAc(b1-3)Gal(b1-4)GlcNAc(b1-3)Gal(b1-4)GlcNAc(b1-3)Gal(b1-4)GlcNAc(b1-2)Man(a1-3)]Man(b1-4)GlcNAc(b1-4)[Fuc(a1-6)]GlcNAc
# Method in brief: as §1
# [11] = biological target: Gal(b1-4)GlcNAc(b1-3)Gal(b1-4)GlcNAc(b1-3)Gal(b1-4)GlcNAc(b1-3)Gal(b1-4)GlcNAc(b1-3)Gal(b1-4)GlcNAc(b1-2)Man(a1-3)[Gal(b1-4)GlcNAc(b1-3)Gal(b1-4)GlcNAc(b1-3)Gal(b1-4)GlcNAc(b1-3)Gal(b1-4)GlcNAc(b1-3)Gal(b1-4)GlcNAc(b1-2)Man(a1-6)]Man(b1-4)GlcNAc(b1-4)GlcNAc
# Method in brief: as §1
# [12] = biological target: Gal(b1-4)GlcNAc(b1-3)Gal(b1-4)GlcNAc(b1-3)Gal(b1-4)GlcNAc(b1-3)Gal(b1-4)GlcNAc(b1-3)Gal(b1-4)GlcNAc(b1-2)Man(a1-3)[Gal(b1-4)GlcNAc(b1-3)Gal(b1-4)GlcNAc(b1-3)Gal(b1-4)GlcNAc(b1-3)Gal(b1-4)GlcNAc(b1-3)Gal(b1-4)GlcNAc(b1-2)Man(a1-6)]Man(b1-4)GlcNAc(b1-4)[Fuc(a1-6)]GlcNAc
# Method in brief: as §1
# [13] = biological target: Gal(b1-4)GlcNAc(b1-3)Gal(b1-4)GlcNAc(b1-3)Gal(b1-4)GlcNAc(b1-3)Gal(b1-4)GlcNAc(b1-3)Gal(b1-4)GlcNAc(b1-2)[Gal(b1-4)GlcNAc(b1-3)Gal(b1-4)GlcNAc(b1-3)Gal(b1-4)GlcNAc(b1-3)Gal(b1-4)GlcNAc(b1-3)Gal(b1-4)GlcNAc(b1-6)]Man(a1-6)[Gal(b1-4)GlcNAc(b1-3)Gal(b1-4)GlcNAc(b1-3)Gal(b1-4)GlcNAc(b1-3)Gal(b1-4)GlcNAc(b1-3)Gal(b1-4)GlcNAc(b1-2)Man(a1-3)]Man(b1-4)GlcNAc(b1-4)[Fuc(a1-6)]GlcNAc
# Method in brief: as §1
# [14] = biological target: Gal(b1-4)GlcNAc(b1-3)Gal(b1-4)GlcNAc(b1-3)Gal(b1-4)GlcNAc(b1-3)Gal(b1-4)GlcNAc(b1-3)Gal(b1-4)GlcNAc(b1-3)Gal(b1-4)GlcNAc(b1-2)Man(a1-3)[Gal(b1-4)GlcNAc(b1-3)Gal(b1-4)GlcNAc(b1-3)Gal(b1-4)GlcNAc(b1-3)Gal(b1-4)GlcNAc(b1-3)Gal(b1-4)GlcNAc(b1-3)Gal(b1-4)GlcNAc(b1-2)Man(a1-6)]Man(b1-4)GlcNAc(b1-4)GlcNAc
# Method in brief: as §1
# [15] = biological target: Gal(b1-4)GlcNAc(b1-3)Gal(b1-4)GlcNAc(b1-3)GalNAc
# Method in brief: as §1
# [16] = biological target: Gal(b1-4)GlcNAc(b1-3)Gal(b1-4)GlcNAc(b1-3)[Gal(b1-4)GlcNAc(b1-3)Gal(b1-4)GlcNAc(b1-6)]GalNAc
# Method in brief: as §1
# [17] = biological target: Gal(b1-4)GlcNAc(b1-3)Gal(b1-4)GlcNAc(b1-6)[Gal(b1-3)]GalNAc
# Method in brief: as §1
# [18] = biological target: Gal(b1-4)GlcNAc(b1-3)Gal(b1-4)[Fuc(a1-3)]GlcNAc(b1-3)Gal(b1-4)[Fuc(a1-3)]GlcNAc
# Method in brief: as §1
# [19] = biological target: Gal(b1-4)GlcNAc(b1-3)GalNAc
# Method in brief: as §1
# [20] = biological target: Gal(b1-4)GlcNAc(b1-3)[Fuc(a1-3)GlcNAc(b1-6)]Gal(b1-4)Glc
# Method in brief: as §1
# [21] = biological target: Gal(b1-4)GlcNAc(b1-3)[Gal(b1-4)GlcNAc(b1-6)]Gal(b1-4)GlcNAc
# Method in brief: as §1
# [22] = biological target: Gal(b1-4)GlcNAc(b1-3)[GlcNAc(b1-6)]Gal(b1-4)GlcNAc
# Method in brief: as §1
# [23] = biological target: Gal(b1-4)GlcNAc(b1-6)Gal(b1-4)GlcNAc
# Method in brief: as §1
# [24] = biological target: Gal(b1-4)GlcNAc(b1-6)GalNAc
# Method in brief: as §1
# [25] = biological target: Gal(b1-4)GlcNAc(b1-6)[Gal(b1-3)]GalNAc
# Method in brief: as §1
# [26] = biological target: Gal(b1-4)GlcNAc(b1-6)[Gal(b1-4)GlcNAc(b1-3)]GalNAc
# Method in brief: as §1
# [27] = biological target: Gal(b1-4)GlcNAc6P
# Method in brief: as §1
# [28] = biological target: Gal(b1-6)Gal
# Method in brief: as §1
# [29] = biological target: Gal3S(b1-3)GalNAc
# Method in brief: as §1
# [30] = biological target: Gal3S(b1-3)GlcNAc
# Method in brief: as §1
# [31] = biological target: Gal3S(b1-3)[Fuc(a1-4)]GlcNAc
# Method in brief: as §1
# [32] = biological target: Gal3S(b1-4)Glc
# Method in brief: as §1
# [33] = biological target: Gal3S(b1-4)Glc6S
# Method in brief: as §1
# [34] = biological target: Gal3S(b1-4)GlcNAc
# Method in brief: as §1
# [35] = biological target: Gal3S(b1-4)[Fuc(a1-3)]Glc6S
# Method in brief: as §1
# [36] = biological target: Gal3S(b1-4)[Fuc(a1-3)]GlcNAc
# Method in brief: as §1
# [37] = biological target: Gal3S(b1-4)[Fuc(a1-3)]GlcNAc6S
# Method in brief: as §1
# [38] = biological target: Gal3S4S(b1-4)GlcNAc
# Method in brief: as §1
# [39] = biological target: Gal3S6S(b1-4)GlcNAc
# Method in brief: as §1
# [40] = biological target: Gal3S6S(b1-4)GlcNAc6S
# Method in brief: as §1
# [41] = biological target: Gal4S(b1-4)GlcNAc
# Method in brief: as §1
# [42] = biological target: Gal4S6S(b1-4)GlcNAc
# Method in brief: as §1
# [43] = biological target: Gal6P(b1-4)GlcNAc
# Method in brief: as §1
# [44] = biological target: Gal6S(b1-3)GlcNAc
# Method in brief: as §1
# [45] = biological target: Gal6S(b1-3)GlcNAc6S
# Method in brief: as §1
binder,measurement,setting,value
B1,glycan array binding signal (z-score),[1],-0.204
same,glycan array binding signal (z-score),[2],-0.109
same,glycan array binding signal (z-score),[3],0.122
same,glycan array binding signal (z-score),[4],-0.146
same,glycan array binding signal (z-score),[5],0.125
same,glycan array binding signal (z-score),[6],0.108
same,glycan array binding signal (z-score),[7],0.16
same,glycan array binding signal (z-score),[8],-0.076
same,glycan array binding signal (z-score),[9],-0.074
same,glycan array binding signal (z-score),[10],-0.104
same,glycan array binding signal (z-score),[11],-0.039
same,glycan array binding signal (z-score),[12],0.159
same,glycan array binding signal (z-score),[13],0.003
same,glycan array binding signal (z-score),[14],0.013
same,glycan array binding signal (z-score),[15],-0.097
same,glycan array binding signal (z-score),[16],0.038
same,glycan array binding signal (z-score),[17],-0.095
same,glycan array binding signal (z-score),[18],-0.124
same,glycan array binding signal (z-score),[19],-0.068
same,glycan array binding signal (z-score),[20],-0.168
same,glycan array binding signal (z-score),[21],-0.108
same,glycan array binding signal (z-score),[22],-0.019
same,glycan array binding signal (z-score),[23],-0.162
same,glycan array binding signal (z-score),[24],-0.097
same,glycan array binding signal (z-score),[25],-0.107
same,glycan array binding signal (z-score),[26],-0.11
same,glycan array binding signal (z-score),[27],-0.056
same,glycan array binding signal (z-score),[28],-0.152
same,glycan array binding signal (z-score),[29],0.052
same,glycan array binding signal (z-score),[30],-0.111
same,glycan array binding signal (z-score),[31],-0.161
same,glycan array binding signal (z-score),[32],-0.223
same,glycan array binding signal (z-score),[33],-0.107
same,glycan array binding signal (z-score),[34],0.048
same,glycan array binding signal (z-score),[35],-0.099
same,glycan array binding signal (z-score),[36],-0.064
same,glycan array binding signal (z-score),[37],-0.021
same,glycan array binding signal (z-score),[38],-0.136
same,glycan array binding signal (z-score),[39],0.105
same,glycan array binding signal (z-score),[40],-0.089
same,glycan array binding signal (z-score),[41],-0.184
same,glycan array binding signal (z-score),[42],0.015
same,glycan array binding signal (z-score),[43],-0.205
same,glycan array binding signal (z-score),[44],-0.134
same,glycan array binding signal (z-score),[45],-0.015
